# B1: 1349 (antibody)
# heavy: QITLKESGPTLVKPTQTLTLTCTFSGFSLSTSGVGVGWIRQPPGKALEWLALIYWDDDKRYSPSLKSRLTITKDTSKNQVVLTMTNMDPVDTATYYCAHSYYYDSSDSYYFDYWGQGTLVTVSS[human IgG1 constant region cut from this listing]
# light: DIQLTQSPSFLSASVGDRVTITCWASQGISSRLAWYQQKPGKAPKLLIYAASTLQSGVPSRFSGSGSGTEFTLTISSLQPEDFGNYYCQQFNTYPFTFGPGTKVDIKRTVAAPSVFIFPPSDEQLKSGTASVVCLLNNFYPREAKVQWKVDNALQSGNSQESVTEQDSKDSTYSLSSTLTLSKADYEKHKVYACEVTHQGLSSPVTKSFNRGEC
# Assays:
# [1] = target: T1, Oxa-23 (Acinetobacter baumannii); experiment: Phage expression library screen (serological expression cloning) for antigen identification; format: binding; settings: phage expression library of genomic DNA from strains BAL 084 and BAL 276
# T1 construct: endogenous in cells; host or cells: OMVs of GC2 A. baumannii clinical strains
# [2] = target: T1, Oxa-23 (Acinetobacter baumannii); experiment: Specific binding to Oxa-23 on OMVs (summary statement); settings: on outer membrane vesicles (OMVs) of Acinetobacter baumannii bacteria
molecule,measurement,setting,value
B1,"antigen bound, elucidated by sequencing the binding phage",[1],bound Oxa-23
same,specific binding to Oxa-23,[2],specifically bind to Oxa-23
